# Assay results published in patent US20240360216A1 (NOVOPROTEIN SCIENTIFIC, published 2024).
# T1: recombinant monkey CD3 protein (CW07, Novoprotein) (monkey, UniProt Q95LI5 22-117)
# T1 construct: extracellular domain; Bought (Novoprotein CW07)
# T1 sequence (looked up): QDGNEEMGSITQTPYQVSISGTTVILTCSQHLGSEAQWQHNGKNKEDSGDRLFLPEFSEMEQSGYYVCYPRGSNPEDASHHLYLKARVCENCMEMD
# T2: monkey CD3E protein (Examples 4.2 and 7) (monkey, UniProt Q95LI5 22-117)
# T2 construct: extracellular domain
# T2 sequence (looked up): T1 sequence (looked up)
# T3: CD19 on Raji cells (CD19+ tumor cells Raji) (UniProt P15391 20-556, limits assumed)
# T3 sequence (looked up): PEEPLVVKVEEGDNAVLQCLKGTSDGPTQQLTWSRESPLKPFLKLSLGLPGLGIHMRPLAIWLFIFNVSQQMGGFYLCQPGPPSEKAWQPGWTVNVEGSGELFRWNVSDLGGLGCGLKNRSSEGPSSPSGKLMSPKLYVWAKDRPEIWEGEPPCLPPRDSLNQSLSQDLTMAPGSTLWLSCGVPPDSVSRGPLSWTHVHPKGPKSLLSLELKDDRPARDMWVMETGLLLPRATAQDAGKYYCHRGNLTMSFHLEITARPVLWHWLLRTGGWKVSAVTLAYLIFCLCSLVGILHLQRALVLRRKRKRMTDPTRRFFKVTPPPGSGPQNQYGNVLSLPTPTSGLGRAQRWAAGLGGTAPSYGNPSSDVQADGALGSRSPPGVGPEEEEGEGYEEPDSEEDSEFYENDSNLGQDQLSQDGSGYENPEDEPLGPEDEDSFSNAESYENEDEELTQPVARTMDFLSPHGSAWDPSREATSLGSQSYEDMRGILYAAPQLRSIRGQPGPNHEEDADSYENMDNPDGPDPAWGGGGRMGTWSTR
# T4: FC labeled recombinant human CD19 (C572 Novoprotein) (human, UniProt P15391 20-291)
# T4 construct: Bought (Novoprotein C572); not shown: Fc label of the bought protein
# T4 sequence (looked up): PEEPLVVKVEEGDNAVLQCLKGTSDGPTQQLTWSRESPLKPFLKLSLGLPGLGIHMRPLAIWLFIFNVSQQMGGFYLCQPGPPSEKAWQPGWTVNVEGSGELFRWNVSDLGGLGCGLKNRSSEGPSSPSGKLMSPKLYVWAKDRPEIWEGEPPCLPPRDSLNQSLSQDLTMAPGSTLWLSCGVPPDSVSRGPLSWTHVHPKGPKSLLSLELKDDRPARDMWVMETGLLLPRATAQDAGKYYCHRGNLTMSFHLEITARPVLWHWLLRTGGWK
# B1: Humanized CD3 single chain antibody huVH5VL5 (scFv)
# scFv: [in this place about 120 residues]GGGGSGGGGSGGGGSQTVVTQEPSLTVSPGGTVTLTCGSSTGPVTGGNYPNWVQQKPGQAPRGLIGGTKFLAPGTPARFSGSLLGGKAALTLSGVQPEDEAEYYCVLWESNRWVFGGGTKLTVLHHHHHH
# B2: Bispecific antibody SC30A of CD3 and CD19 (bispecific antibody)
# chain: DIQLTQSPASLAVSLGQRATISCKASQSVDYDGDSYLNWYQQIPGQPPKLLIYDASNLVSGIPPRFSGSGSGTDFTLNIHPVEKVDAATYHCQQSTEDPWTFGGGTKLEIKGGGGSGGGGSGGGGSQVQLQQSGAELVRPGSSVKISCKASGYAFSSYWMNWVKQRPGQGLEWIGQIWPGDGDTNYNGKFKGKATLTADESSSTAYMQLSSLASEDSAVYFCARRETTTVGRYYYAMDYWGQGTTVTVSSGGGGS[in this place about 120 residues]GGGGSGGGGSGGGGSQTVVTQEPSLTVSPGGTVTLTCGSSTGPVTGGNYPNWVQQKPGQAPRGLIGGTKFLAPGTPARFSGSLLGGKAALTLSGVQPEDEAEYYCVLWESNRWVFGGGTKLTVL
# notes: Single chain: anti-CD19 scFv (from blinatumomab) - GGGGS - huVH5-(G4S)3-huVL5
# What was measured:
# [1] = molecular target: T5, FC labeled recombinant human CD3E (CP19 Novoprotein) (human, UniProt P07766 23-126); assay: ELISA, recombinant hCD3 (CP19) coated on plate, scFv diluted 10 fold from 20 µg/ml
# T5 construct: extracellular domain; Bought (Novoprotein CP19); also called recombinant hCD3 protein (CP19, Novoprotein); not shown: Fc label of the bought protein
# [2] = molecular target: T1, recombinant monkey CD3 protein (CW07, …); assay: ELISA, recombinant monkey CD3 (CW07) coated on plate, scFv diluted 10 fold from 20 µg/ml
# [3] = molecular target: T2, monkey CD3E protein (Examples 4.2 and 7); assay: ELISA on monkey CD3E
# [4] = molecular target: T3, CD19 on Raji cells (CD19+ tumor cells …); assay: cell-based or functional assay
# [5] = molecular target: T4, FC labeled recombinant human CD19 (C572 …); assay: Fortebio (BLI), FC labeled human CD19 (C572) on protein A sensor, SC30A in gradient dilution
# [6] = molecular target: T5, FC labeled recombinant human CD3E (CP19 …); assay: Fortebio (BLI), FC labeled human CD3E (CP19) on protein A sensor, SC30A in gradient dilution
# T5 sequence (P07766 23-126): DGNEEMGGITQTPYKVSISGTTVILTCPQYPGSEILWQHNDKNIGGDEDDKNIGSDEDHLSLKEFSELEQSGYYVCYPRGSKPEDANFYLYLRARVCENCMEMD
Binder,EC50 [1],EC50 [2],EC50 [3],"EC50, Jurkat-NFAT-Luc reporter gene method in the presence of target cells [4]",Kd [5],koff [5],kon [5],Kd [6],koff [6],kon [6]
B1,0.364 µg/mL,0.938 µg/mL,,,,,,,,
B2,,,1.24 µg/mL,0.00136 µg/mL,0.502 nM,0.000656 s⁻¹,1.31e+06 M⁻¹ s⁻¹,1.48 nM,0.000474 s⁻¹,320000 M⁻¹ s⁻¹
